The whole screen tested about 46,000 compounds, of which about 60 (0.1%) were called active. Inconclusive results (about 3%) are left out. Calls come from the whole dose curve; as a rule, active = well fitted inhibition curve with a large enough effect; inconclusive = small, poorly fitted or top-dose-only effect; inactive = no such curve, though single readings can be large or run the other way. The list shows a part of the results.
assay: Primary qHTS assay for Inhibitors of ovarian cancer metastasis using an organotypic tumor microenvironment (TME) model.; note: nearly all actives have a fitted effect of over 65% in size;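 for activity change, negative = inhibition: plate controls were DMSO wells for no effect and tomatine positive control wells for full effect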; conditions: SKOV3ip1-GFP adhesion/invasion on 3D omental model, fluorescence; series mostly up to 45.8 µM; activity change, negative = inhibition: at the top concentration
In short: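 Adhesion/invasion was scored as fixed GFP-labeled SKOV3ip1 cell counts (488/509 nm), normalized to DMSO and tomatine controls. Cancer cells in serum-free medium, with four compound doses (0.36-46 umol/L), sat 2 hr at RT then 16 hr at 37 C on a 48 hr fibroblast/mesothelial/ECM culture.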

Activity change, negative = inhibition, inactive:
COc1ccc(CCNC(=O)c2ccc(Cn3c(=O)c4ccccc4n(Cc4ccc(C)cc4)c3=O)cc2)cc1OC -7.81%
COCCCn1c(SCC(=O)Nc2ccccc2OC)nc2c(sc3ccccc32)c1=O 11.4%
COc1ccc(NC(=O)CSc2nc(-c3ccc(F)cc3)c3cccc(C)c3n2)cc1 -4.4%
CC1(C)C(=O)N(CCN2CCC(C(=O)c3ccc(F)cc3)CC2)c2ccccc21 0.397%
CCOc1ccc(CCNC(=O)c2ccc(-c3nc(COc4ccc(C)cc4)c(C)o3)cc2)cc1 -8.28%
Cc1ccc(C)c(NC(=O)CCc2c(C)nn(-c3ccc(N4CCCC4)nn3)c2C)c1 7.68%
COc1ccc(-c2oc3ncn4nc(COc5ccccc5C)nc4c3c2-c2ccc(OC)cc2)cc1 1.21%
COC(=O)c1ccc(OC)c(Cn2c(=O)n(-c3cccc(Cl)c3)c(=O)c3c4c(sc32)CN(C(C)=O)CC4)c1 4.95%
CCOC(=O)C1CCCN(C(=O)Cn2ncn3c(cc4sc(CC)cc43)c2=O)C1 (stereo not given) -3.49%
CCC1=Nc2cc(C(=O)NCc3ccc(C)cc3)ccc2Sc2ccc(C)cc21 -23.2%
CCCCN(C)CCCNC(=O)c1cc(-c2cccnc2)nc2ccccc12 -13%
O=C(CN1C(=O)COc2ccc(S(=O)(=O)N3CCCCCC3)cc21)N1CCN(c2cccc(C(F)(F)F)c2)CC1 1.31%
COc1ccc2c(CNCCc3cccs3)c(C(=O)O)n(Cc3ccccc3C)c2c1 -7.1%
COc1ccc2oc(=O)c(-c3cn4c(n3)sc3cc(F)ccc34)cc2c1 -9.77%
Cc1cccc(C)c1OCC(=O)Nc1c(C(=O)c2ccc(Br)cc2)oc2ccccc12 24.8%
CCC(C)NC(=O)c1[nH]c2cc(C)ccc2c1Sc1ccc(Cl)cc1 (stereo not given) 4.95%
CCOc1cc2[nH]c(=O)n(CCCCC(=O)N3CCN(c4ccccc4)CC3)c(=O)c2cc1OCC 6.34%
COc1ccc(-c2noc(N3CCC(C(=O)N(C)c4cc(Cl)ccc4OC)CC3)n2)cc1 -6.78%
CCCCOc1ccc(S(=O)(=O)NCc2csc(-c3ccc(OC)cc3)n2)cc1 -5.84%
CCCn1c2ccccc2c2cnn(CC(=O)N(Cc3ccccc3)C(C)C)c(=O)c21 3.55%
NC(=O)Nc1sc(-c2ccc(F)cc2)cc1C(N)=O -4.81%
COc1ccc(-n2ccn(CC(=O)NCc3ccc(C)cc3)c(=O)c2=O)cc1OC 3.68%
Cc1cc(F)ccc1NC(=O)c1ccc2nc(Cc3ccccc3)oc2c1 -5.59%
Cc1ccc(S(=O)(=O)NCCc2nnc3ccc(SCc4ccc(F)cc4)nn23)cc1 -8.51%
CCC(C(=O)Nc1cc(OC)ccc1OC)n1c(C)c2cnn(-c3ccccc3)c(=O)c2c1C (stereo not given) 28.7%
COc1ccccc1C(=O)c1cn(CC(=O)Nc2ccccc2F)c2nc(C)ccc2c1=O -22.1%
Cc1ccc(C)c(N2CCN(C(=O)c3cc(S(=O)(=O)N4CCC(C)CC4)cn3C)CC2)c1 6.89%
Cc1ccc(Nc2ncc(C(=O)N3CCN(c4cccc(Cl)c4)CC3)c3ccccc23)cc1Cl 0.153%
COc1ccccc1Cn1cc(C(=O)c2ccc(F)cc2)c(=O)c2cc3c(cc21)OCO3 0.355%
COC(=O)c1c(C)oc2ccc(N(C(=O)c3ccncc3)S(=O)(=O)c3c(C)cc(C)cc3C)cc12 -3.54%
CC(C)(C)c1ccc(C(=O)NC2(C(F)(F)F)C(=O)Nc3c2c(=O)[nH]c(=O)n3-c2ccccc2)cc1 (stereo not given) 5.37%
Cc1cccn2c(=O)c3cc(C(=O)NCc4cccnc4)c(=N)n(CCCO)c3nc12 -3.78%
CC1=Nc2cc(C(=O)NCCc3ccccc3)ccc2Sc2c(C)ccc(C)c21 1.89%
COc1ccc(C)cc1NC(=O)c1ccc(=O)n(Cc2ccccc2)c1 9.51%
CC(C)CCNC(=O)C1CCN(c2nc3ccc(Cl)cc3[nH]2)CC1 -4.34%
CCOC(=O)c1cc2c(=O)n3ccccc3nc2n(Cc2ccco2)c1=NC(=O)c1c(F)cccc1Cl -16%
O=C(Nc1ccc2nc(SCC(=O)N3CCCC3)sc2c1)c1cccc(Cl)c1 -7.35%
COc1ccc(NC(=O)Cn2c(=O)n(-c3ccc(C)cc3)c(=O)c3c2cnn3C)cc1 4.18%
COC(=O)c1cc2occc2n1Cc1nc(-c2cccc(Cl)c2)oc1C -3.45%
COc1ccc(CCNC(=O)c2cn(C)c3ccc(S(=O)(=O)N(C)C4CCCCC4)cc3c2=O)cc1OC -2.77%
CC(=O)Nc1ccc(S(=O)(=O)Nc2cc(-c3cn4ccccc4n3)ccc2C)cc1 1.04%
Cc1cccc(C(=O)Nc2c(C(=O)NCc3ccc(Cl)cc3)sc3nc(C)cc(C)c23)c1 -1.39%
COc1ccc(OC)c(CCNC(=O)c2cnn(-c3ccccc3Cl)c2C2CCN(C(=O)OC(C)(C)C)CC2)c1 1.32%
Cc1ccc(C)c(Cn2c(=O)cc(C)c3c(C)nn(-c4cccc(F)c4)c32)c1 8.13%
COc1ccccc1NC(=O)C1=C(C)Nc2nnnn2C1c1cc(Br)c(O)c(OC)c1 (stereo not given) 22.4%
COc1cccc(-n2c(=O)c3c(C)c(C)sc3n(CC(=O)NCc3ccccc3)c2=O)c1 -9.74%
COc1ccc(-c2nsc(NC(=O)C(C)Oc3ccc(Cl)c(C)c3)n2)cc1 (stereo not given) -12.5%
N[C@@H](CC(=O)N1CCn2c(nnc2C(F)(F)F)C1)Cc1cc(F)c(F)cc1F -2.01%
COc1ccc(-c2nc(SCc3cc(=O)c4cc(C)ccc4[nH]3)n[nH]2)cc1 14.9%
COc1ccc(-c2nc(C)c(CCNC(=O)C(=O)Nc3cc(C)cc(C)c3)s2)cc1OC -0.728%
COc1ccc(NC(=O)c2ccc3c(SCC(=O)O)c4c(nc3c2)CCC4)c(OC)c1 -10%
CCOc1ccccc1N1CC(c2nc3ccccc3n2Cc2c(C)cc(C)cc2C)CC1=O (stereo not given) -1.63%
Cc1sc2ncn(CC(=O)N3CCN(c4cccc(Cl)c4)CC3)c(=O)c2c1S(=O)(=O)N1CCN(c2ncccn2)CC1 67.1%
CCCN(CCC)CCNC(=O)c1ccc2c(c1)NC(=O)C(CS(=O)(=O)Cc1cccc(Br)c1)N2 (stereo not given) 6.73%
Cc1cccc(N2CCN(C(=O)c3cc4c(=O)n(C)c5ccccc5c4s3)CC2C)c1 (stereo not given) 8.07%
Cc1ccccc1C(=O)Nc1c(C)nc(Nc2ccccc2)nc1Nc1ccccc1 8.7%
CCOCCCNC(=O)C(c1ccc(OC)cc1)N(Cc1ccc2c(c1)OCO2)C(=O)c1ccccc1O (stereo not given) 1.19%
CC(=O)N1c2ccc(S(=O)(=O)NCC3CCC(C(=O)Nc4cccc(C)c4C)CC3)cc2CC1C (stereo not given) 1.26%
COc1ccc(N2CC(C(=O)NCc3nnnn3-c3ccc(C)c(C)c3)CC2=O)cc1 (stereo not given) -3.19%
O=C(Cn1c(SCCOc2ccc(Cl)cc2)nc2ccccc21)N1CCCCC1 19.6%
COc1ccc(CCNC(=O)C(=O)NCC(c2ccco2)S(=O)(=O)c2ccccc2)cc1 (stereo not given) -17.7%
COc1ccccc1NC(=O)Cn1c(=O)c(CNc2ccc(C)cc2)cc2cc3c(cc21)OCCO3 -18.9%
CCCOc1ccc(C2CC(=O)Nc3c2c(C)nn3-c2nncc(-c3cccc(OC)c3)n2)cc1OC (stereo not given) 3.6%
COc1cccc(C2=CC(c3cc(Br)ccc3F)n3nnnc3N2)c1 (stereo not given) -23.2%
COc1ccc2cc3cc(C(=O)N4CCN(c5ccccc5F)CC4)oc3nc2c1 9.88%
COC(=O)c1ccc(NC(=O)N2CCN(Cc3cc(=O)n4nc(-c5ccc(C)cc5)sc4n3)CC2)cc1 -2.02%
COc1ccc(-c2noc(-c3ccc(N4CCN(c5ccccc5)CC4)c([N+](=O)[O-])c3)n2)cc1 -8.2%
CC(CNC(=O)CN1C(=O)c2cccnc2Oc2ccc(Cl)cc21)c1ccccc1 (stereo not given) 1.11%
Cc1nc2c(c(C)c1CCC(=O)NCc1ccc(Cl)cc1)c(=O)n(C)c(=O)n2C 13.3%
COc1cccc(OC)c1C(=O)Nc1nc2c(s1)CCc1ccccc1-2 13.5%
Cc1cccc(NC(=O)c2ccc3c(c2)CCN3S(=O)(=O)c2ccccc2)c1C 1.45%
CCn1c(=O)cc(OCC(=O)N2CCN(c3ccc(OC)cc3)CC2)c2ccccc21 -7.69%
COc1ccc(NC(=O)CCNS(=O)(=O)c2cccc3nsnc23)cc1Cl -16.7%
Cc1cccc(-n2c(C)nc3cc(C(=O)NCCC4=CCCCC4)ccc32)c1 5.97%

outcome, inactive:
O=C(Nc1ccc(F)cc1)[C@@H](c1ccccc1)N1Cc2ccccc2C1=O
COc1cc(OC)c(NC(=O)Cc2ccc(-n3c(C)nc4cccnc43)cc2)cc1Cl
Cc1cccc(N2CCN(C(=O)C3CCN(S(=O)(=O)c4c(C)noc4C)CC3)CC2)c1C
COc1ccc(CCNC(=O)CCc2cn(Cc3ccc(C)cc3)c3ccccc23)c(OC)c1OC
CCCOc1ccc(-c2nc(N3CCC(C)CC3)c3ccccc3n2)cc1
Cc1c(C(=O)N2CCCC2)oc2c1-c1nn(CC(=O)NC(C)c3ccccc3)cc1CC2 (stereo not given)
COc1ccc(CC(=O)NCC(c2cccs2)S(=O)(=O)c2ccc(Cl)cc2)cc1 (stereo not given)
Cc1ccc2oc(C(=O)Nc3cccc(-c4nc5ccccc5s4)c3)c(C)c2c1
Cc1sc2ncn(CC(=O)N3CCN(c4ccc(Cl)cc4)CC3)c(=O)c2c1S(=O)(=O)N1CCN(c2ncccn2)CC1
Cc1ccc(Cn2c(SCC(=O)C(C)(C)C)nc3ccsc3c2=O)cc1
CCOC(=O)c1c(C)[nH]c(C)c1S(=O)(=O)N(C)CC(=O)Nc1ccc(C)c(N(C)C)c1
COc1ccc(NC(=O)c2cnc(Nc3ccc(C)c(Cl)c3)c3ccccc23)cc1OC
Cc1ccc(NC(=O)Cn2nc(C)n3cccc3c2=O)c(C)c1
COc1ccc(-c2nnc3n2N(C(C)=O)C(c2ccc(Cl)c(Cl)c2)=C(C(C)=O)S3)cc1
Cc1cccc(N2C(=O)CSC23C(=O)N(CC(=O)NCc2ccccc2Cl)c2ccccc23)c1 (stereo not given)
Cc1ccc(NC(=O)Nc2sc3nc4n(c(=O)c3c2C)CCC(C)CC4)c(Cl)c1 (stereo not given)
